First the molecules themselves.
B1: AAAUGAC (DNA:RNA)
RNA: GGGAGACCGGAAUUCAGAUUGUCCAAAUGACUUAAAUCCCGUCGUAGCCACCA
DNA 1: CAATCTGAATTCCGGTCTCCC
DNA 2: TGGTGGCTACGACGGGATT
B2: GUGUCCG (DNA:RNA)
RNA: B1 RNA with A25G, A26U, A27G, G29C, A30C, C31G
DNA 1: CAATCTGAATTCCGGTCTCCC
DNA 2: TGGTGGCTACGACGGGATT
B3: GCGCCUC (DNA:RNA)
RNA: B1 RNA with A25G, A26C, A27G, U28C, G29C, A30U
DNA 1: CAATCTGAATTCCGGTCTCCC
DNA 2: TGGTGGCTACGACGGGATT
B4: CGGUGAA (DNA:RNA)
RNA: B1 RNA with A25C, A26G, A27G, C31A
DNA 1: CAATCTGAATTCCGGTCTCCC
DNA 2: TGGTGGCTACGACGGGATT
B5: CUCUCGA (DNA:RNA)
RNA: B1 RNA with A25C, A26U, A27C, G29C, A30G, C31A
DNA 1: CAATCTGAATTCCGGTCTCCC
DNA 2: TGGTGGCTACGACGGGATT
B6: AUUCAUU (DNA:RNA)
RNA: B1 RNA with A26U, A27U, U28C, G29A, A30U, C31U
DNA 1: CAATCTGAATTCCGGTCTCCC
DNA 2: TGGTGGCTACGACGGGATT
B7: CCGAUGU (DNA:RNA)
RNA: GGGAGACCGGAAUUCAGAUUGUCCCCGAUGUUUAAAUCCCGUCGUAGCCACCA
DNA 1: CAATCTGAATTCCGGTCTCCC
DNA 2: TGGTGGCTACGACGGGATT
B8: UGACGAU (DNA:RNA)
RNA: B1 RNA with A25U, A26G, U28C, C31U
DNA 1: CAATCTGAATTCCGGTCTCCC
DNA 2: TGGTGGCTACGACGGGATT
B9: CCGGUGG (DNA:RNA)
RNA: B7 RNA with A28G, U31G
DNA 1: CAATCTGAATTCCGGTCTCCC
DNA 2: TGGTGGCTACGACGGGATT
B10: AUAGUAU (DNA:RNA)
RNA: B1 RNA with A26U, U28G, G29U, C31U
DNA 1: CAATCTGAATTCCGGTCTCCC
DNA 2: TGGTGGCTACGACGGGATT
B11: GGUGACG (DNA:RNA)
RNA: GGGAGACCGGAAUUCAGAUUGUCCGGUGACGUUAAAUCCCGUCGUAGCCACCA
DNA 1: CAATCTGAATTCCGGTCTCCC
DNA 2: TGGTGGCTACGACGGGATT
B12: AGCAUAG (DNA:RNA)
RNA: B1 RNA with A26G, A27C, U28A, G29U, C31G
DNA 1: CAATCTGAATTCCGGTCTCCC
DNA 2: TGGTGGCTACGACGGGATT
B13: ACUGGCU (DNA:RNA)
RNA: B11 RNA with G25A, G26C, A29G, G31U
DNA 1: CAATCTGAATTCCGGTCTCCC
DNA 2: TGGTGGCTACGACGGGATT
B14: AGUGAAA (DNA:RNA)
RNA: B11 RNA with G25A, C30A, G31A
DNA 1: CAATCTGAATTCCGGTCTCCC
DNA 2: TGGTGGCTACGACGGGATT
B15: UAUGCUU (DNA:RNA)
RNA: B11 RNA with G25U, G26A, A29C, C30U, G31U
DNA 1: CAATCTGAATTCCGGTCTCCC
DNA 2: TGGTGGCTACGACGGGATT
B16: AGAAGCU (DNA:RNA)
RNA: B1 RNA with A26G, U28A, A30C, C31U
DNA 1: CAATCTGAATTCCGGTCTCCC
DNA 2: TGGTGGCTACGACGGGATT
B17: UCAGGCU (DNA:RNA)
RNA: B1 RNA with A25U, A26C, U28G, A30C, C31U
DNA 1: CAATCTGAATTCCGGTCTCCC
DNA 2: TGGTGGCTACGACGGGATT
B18: AAGGCAA (DNA:RNA)
RNA: B1 RNA with A27G, U28G, G29C, C31A
DNA 1: CAATCTGAATTCCGGTCTCCC
DNA 2: TGGTGGCTACGACGGGATT
B19: UUCUUUG (DNA:RNA)
RNA: B1 RNA with A25U, A26U, A27C, G29U, A30U, C31G
DNA 1: CAATCTGAATTCCGGTCTCCC
DNA 2: TGGTGGCTACGACGGGATT
B20: CCAAACA (DNA:RNA)
RNA: B7 RNA with G27A, U29A, G30C, U31A
DNA 1: CAATCTGAATTCCGGTCTCCC
DNA 2: TGGTGGCTACGACGGGATT

Changes are numbered by the printed parent chain; changes in the protein carry UniProt numbers. This is one part of the list.

The experiment deals with T1, RBFOX1 RRM (Homo sapiens, UniProt Q9NWB1 109-208).
T1 sequence: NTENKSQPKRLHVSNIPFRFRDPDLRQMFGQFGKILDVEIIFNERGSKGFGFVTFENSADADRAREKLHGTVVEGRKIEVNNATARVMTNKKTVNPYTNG
The experiment in a line: EMSA; HiTS-Eq, 1 nM pool, 10 min; buffer printed only for the single-RNA assays: 10 mM Tris pH 7.5, 150 mM NaCl, 3.4 mM EDTA, 0.001% NP-40, 30 C. The following applies: tags: His6 N-terminal (pET28a); label: 5' 32P. A digest of the protocol:
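A pool of RNA with 7 randomized nucleotides, 5′-radiolabelled and with DNA-annealed flanks, was equilibrated at 1 nM for 10 min in 50 µL with purified RbFox RRM, wild type or mutant, across increasing protein concentrations. Free RNA was separated by 8% native PAGE, excised, reverse-transcribed, barcoded by PCR and sequenced. Relative association constants were obtained from read-count changes of each RNA species versus the control reaction and normalised to the cognate motif.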
With B1, the binding signal was 0.00578 KA relative to UGCAUGU.

As to B2, the binding signal was 0.016 KA relative to UGCAUGU.

For the molecule B3, the binding signal was 0.0125 KA relative to UGCAUGU.

On to B4, for which the binding signal is 0.0116 KA relative to UGCAUGU.

Consider B5, for which the binding signal was 0.00919 KA relative to UGCAUGU.

Consider B6, for which the binding signal is 0.000676 KA relative to UGCAUGU.

Regarding B7, the binding signal was 0.0124 KA relative to UGCAUGU.

Regarding B8, the binding signal is 0.019 KA relative to UGCAUGU.

As to B9, the binding signal was 0.00898 KA relative to UGCAUGU.

Take B10: the binding signal is 0.00289 KA relative to UGCAUGU.

As to B11, the binding signal was 0.0138 KA relative to UGCAUGU.

As to B12, the binding signal was 0.0115 KA relative to UGCAUGU.

Take B13: the binding signal was 0.0162 KA relative to UGCAUGU.

For the molecule B14, the binding signal is 0.00902 KA relative to UGCAUGU.

Take B15: the binding signal was 0.0103 KA relative to UGCAUGU.

As to B16, the binding signal is 0.00454 KA relative to UGCAUGU.

For the molecule B17, the binding signal is 0.0162 KA relative to UGCAUGU.

For B18, the binding signal is 0.00425 KA relative to UGCAUGU.

Regarding B19, the binding signal is 0.0304 KA relative to UGCAUGU.

For the molecule B20, the binding signal was 0.000511 KA relative to UGCAUGU.

Source of the values: publication PMC9911399, “Two distinct binding modes provide the RNA-binding protein RbFox with extraordinary sequence specificity”.
